# According to the supplement of paper PMC4967469:
# Legend:
# Assay in all cases: Viability of human cancer cell lines after 72 h of drug (GDSC screen)
# FTI-277 = compound: COC(=O)[C@H](CCSC)NC(=O)c1ccc(NC[C@@H](N)CS)cc1-c1ccccc1 [FTI-277]; conditions: top dose 1.024 µM; top dose inferred
# Protocol: (§1)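 Human cancer cell lines in 384-well plates, medium with 10% serum, drug for 72 h over a 256-fold dose range (nine 2-fold or five 4-fold steps up to the top dose). Adherent lines were fixed and stained with the nucleic acid dye Syto60, suspension lines read with resazurin; signal relative to control wells, capped at 0 and 100%. One two-parameter sigmoid per drug and line, fitted in a mixed model over all curves with the slope shared within a line.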
# OSI-906 = compound: C[C@]1(O)C[C@@H](c2nc(-c3ccc4ccc(-c5ccccc5)nc4c3)c3c(N)nccn32)C1 [OSI-906]; conditions: top dose 2.56 µM; top dose inferred
# Protocol: as §1
# CGP-60474 = compound: OCCCNc1cc(-c2ccnc(Nc3cccc(Cl)c3)n2)ccn1 [CGP-60474]; conditions: top dose 0.256 µM; top dose inferred
# Protocol: as §1
# NSC-207895 = compound: CN1CCN(c2ccc([N+](=O)[O-])c3no[n+]([O-])c23)CC1 [NSC-207895]; conditions: top dose 20 µM; top dose inferred
# Protocol: as §1
# YM155 = compound: COCC[n+]1c2c(n(Cc3cnccn3)c1C)C(=O)c1ccccc1C2=O [YM155]; conditions: top dose 5.12 µM
# Protocol: as §1
# SB-715992 = compound: Cc1ccc(C(=O)N(CCCN)[C@@H](c2nc3cc(Cl)ccc3c(=O)n2Cc2ccccc2)C(C)C)cc1 [SB-715992]; conditions: top dose 0.128 µM; top dose inferred
# Protocol: as §1
# Belinostat = compound: O=C(/C=C/c1cccc(S(=O)(=O)Nc2ccccc2)c1)NO [Belinostat]; conditions: top dose 20 µM; top dose inferred
# Protocol: as §1
# JQ1 = compound: Cc1sc2c(c1C)C(c1ccc(Cl)cc1)=N[C@@H](CC(=O)OC(C)(C)C)c1nnc(C)n1-2 [JQ1]
# Protocol: as §1
# Cyclopamine = compound: CC1=C2C[C@H]3[C@@H](CC=C4C[C@@H](O)CC[C@@]43C)[C@@H]2CC[C@]12O[C@@H]1C[C@H](C)CN[C@H]1[C@H]2C [Cyclopamine]; conditions: top dose 16 µM; top dose inferred
# Protocol: as §1
# JNJ-26854165 = compound: c1ccc2c(CCNc3ccc(Nc4ccncc4)cc3)c[nH]c2c1 [JNJ-26854165]; conditions: top dose 10 µM
# Protocol: as §1
# Docetaxel = compound: CC(=O)O[C@@]12CO[C@@H]1C[C@H](O)[C@@]1(C)C(=O)[C@H](O)C3=C(C)[C@@H](OC(=O)[C@H](O)[C@@H](NC(=O)OC(C)(C)C)c4ccccc4)C[C@@](O)([C@@H](OC(=O)c4ccccc4)[C@H]21)C3(C)C [Docetaxel]; conditions: top dose 0.0125 µM
# Protocol: as §1
# JNK Inhibitor VIII = compound: CCOc1nc(NC(=O)Cc2cc(OC)ccc2OC)cc(N)c1C#N [JNK Inhibitor VIII]; conditions: top dose 10 µM; top dose inferred
# Protocol: as §1
# AMG-706 = compound: CC1(C)CNc2cc(NC(=O)c3cccnc3NCc3ccncc3)ccc21 [AMG-706]; conditions: top dose 2 µM; top dose inferred
# Protocol: as §1
# [1] = top dose 2.56 µM, screen: GDSC drug entry 163
# [2] = top dose 1 µM, screen: GDSC drug entry 1218, top dose inferred
Cell Line,AUC (FTI-277),IC50 (FTI-277) [nM],AUC (OSI-906),IC50 (OSI-906) [nM],AUC (CGP-60474),AUC (NSC-207895),IC50 (NSC-207895) [µM],AUC (YM155),IC50 (YM155) [nM],AUC (SB-715992),IC50 (SB-715992) [nM],AUC (Belinostat),IC50 (Belinostat) [nM],AUC (JQ1; [1]),IC50 (JQ1; [1]) [nM],AUC (Cyclopamine),IC50 (Cyclopamine) [µM],AUC (JNJ-26854165),IC50 (JNJ-26854165) [µM],IC50 (CGP-60474) [nM],AUC (JQ1; [2]),IC50 (JQ1; [2]) [nM],AUC (Docetaxel),IC50 (Docetaxel) [nM],AUC (JNK Inhibitor VIII),IC50 (JNK Inhibitor VIII) [µM],AUC (AMG-706),IC50 (AMG-706) [nM]
"TALL-1 (T-cell lymphoblastic leukaemia, suspension)",0.99,> 1020,0.99,> 2560,0.772,0.986,> 20,0.056,< 20,0.972,> 128,0.391,637,0.99,> 2560,0.984,> 16,,,,,,,,,,,
"COLO-829 (melanoma, adherent)",0.882,> 1020,0.979,> 2560,0.835,0.888,> 20,0.134,< 20,0.941,> 128,0.56,1970,0.764,1380,0.856,> 16,0.951,> 10,> 256,0.971,> 1000,,,,,,
"NCI-H2227 (small cell lung carcinoma, semi-adherent)",0.976,> 1020,0.983,> 2560,,0.749,7.26,0.036,< 20,0.724,38,0.137,< 78.1,0.969,> 2560,0.983,> 16,0.986,> 10,,0.973,> 1000,0.852,11.7,0.985,> 10,0.986,> 2000
"NCI-H1666 (lung adenocarcinoma, semi-adherent)",0.986,> 1020,0.986,> 2560,0.982,0.987,> 20,0.067,< 20,0.948,> 128,0.485,1130,0.951,> 2560,0.985,> 16,0.951,> 10,> 256,0.955,> 1000,,,,,,
"SU-DHL-1 (anaplastic large cell lymphoma, suspension)",0.997,> 1020,0.997,> 2560,0.791,0.939,17.6,0.009,< 20,0.994,> 128,0.518,1380,0.997,> 2560,0.993,> 16,,,82,,,,,,,,
"EW-12 (Ewing sarcoma, suspension)",,,,,0.975,,,,,,,,,,,0.969,> 16,,,> 256,,,,,,,,
"HCC1599 (breast, suspension)",0.97,> 1020,0.981,> 2560,0.649,0.935,> 20,0.053,< 20,0.676,26.8,0.293,296,0.798,1430,0.939,> 16,,,44.2,,,,,,,,
"SIG-M5 (acute myeloid leukaemia, suspension)",0.984,> 1020,,,0.61,0.795,6.8,0.019,< 20,,,0.11,119,0.263,41.7,0.99,> 16,,,,,,,,,,,
"HEL (acute myeloid leukaemia, semi-adherent)",0.975,> 1020,0.965,> 2560,0.752,0.871,13.6,0.366,147,0.889,103,0.131,117,0.589,268,0.981,> 16,0.878,7.28,72.2,0.991,> 1000,,,,,,
"CAL-148 (breast, suspension)",0.988,> 1020,0.99,> 2560,0.799,0.989,> 20,0.024,< 20,0.976,> 128,0.275,304,0.755,811,0.988,> 16,,,112,,,,,,,,
"Hs-445 (Hodgkin lymphoma, suspension)",0.987,> 1020,0.989,> 2560,0.746,0.94,> 20,0.031,< 20,0.502,8.12,0.299,357,0.817,1300,0.988,> 16,,,75.8,0.985,> 1000,,,,,,
"NB12 (neuroblastoma, adherent)",0.972,> 1020,0.975,> 2560,,0.824,17.8,0.091,< 20,0.886,> 128,0.136,< 78.1,0.687,643,0.952,> 16,0.94,> 10,,0.961,> 1000,0.879,> 12.5,0.98,> 10,0.979,> 2000
"NCI-H2171 (small cell lung carcinoma, suspension)",0.988,> 1020,0.858,1670,0.9,0.808,8.73,0.019,< 20,0.584,13.2,0.336,468,0.96,> 2560,0.991,> 16,,,252,,,,,,,,
"MDST8 (large intestine, adherent)",0.972,> 1020,0.974,> 2560,0.908,0.763,7.13,,,0.92,> 128,,,0.973,> 2560,0.987,> 16,0.813,5.36,> 256,0.986,> 1000,,,0.987,> 10,0.95,> 2000
"D-392MG (glioma, adherent)",0.963,> 1020,0.981,> 2560,,0.981,> 20,0.293,66.7,0.952,> 128,0.624,3110,0.731,939,0.91,> 16,0.894,> 10,,0.976,> 1000,0.832,12.4,0.97,> 10,0.936,> 2000
"THP-1 (acute myeloid leukaemia, suspension)",0.981,> 1020,0.991,> 2560,0.915,0.9,> 20,0.064,< 20,0.832,70.9,,,,,0.974,> 16,0.976,> 10,> 256,,,,,0.988,> 10,0.99,> 2000
"HT-144 (melanoma, adherent)",0.939,> 1020,,,0.533,0.969,> 20,0.772,2210,0.979,> 128,0.983,> 20000,0.652,445,0.964,> 16,0.87,> 10,19.9,0.953,> 1000,,,0.939,> 10,0.923,> 2000
"RC-K8 (B-cell lymphoma, suspension)",0.993,> 1020,0.993,> 2560,,0.942,> 20,0.301,96.5,0.993,> 128,0.577,1970,0.935,> 2560,0.992,> 16,0.981,> 10,,0.969,> 1000,0.991,> 12.5,0.99,> 10,0.992,> 2000
"BC-3 (B-cell lymphoma, suspension)",0.988,> 1020,0.978,> 2560,0.753,0.971,> 20,0.14,28.7,0.702,27.5,0.315,405,0.848,1600,0.979,> 16,,,77.3,,,,,,,,
"HCC-33 (small cell lung carcinoma, adherent)",0.984,> 1020,0.863,2270,0.862,0.828,12.5,0.029,< 20,0.835,85.3,0.233,207,0.928,> 2560,0.967,> 16,,,223,,,,,,,,
"ONS-76 (medulloblastoma, adherent)",0.823,668,0.984,> 2560,0.72,0.978,> 20,0.267,65.4,0.83,89.4,,,0.626,367,0.982,> 16,0.9,> 10,71.3,0.964,> 1000,,,0.952,> 10,0.943,> 2000
"NCI-H82 (small cell lung carcinoma, suspension)",0.989,> 1020,0.988,> 2560,0.845,0.665,3.5,0.031,< 20,0.827,72.8,,,0.968,> 2560,0.959,> 16,0.925,> 10,170,0.988,> 1000,,,0.988,> 10,0.981,> 2000
"NCI-H128 (small cell lung carcinoma, suspension)",,,,,0.875,,,,,,,,,,,0.969,> 16,,,> 256,,,,,,,,
"NCI-H2196 (small cell lung carcinoma, adherent)",0.984,> 1020,0.984,> 2560,0.894,0.817,11.9,0.077,< 20,0.89,> 128,0.321,384,0.967,> 2560,0.986,> 16,,,> 256,,,,,,,,

# IC50 is the fitted dose that halves viability relative to control wells, and lower means more sensitive; a limit (>, <) means that the fit lies beyond the doses tested. For AUC the same curve is integrated over the 256-fold range of doses and scaled to a fraction; it is 1 without any effect and falls as sensitivity rises. For part of these data: The top dose, if marked as inferred, was derived from the fitted curves, not read from the paper. For part of these data: Where an entry number is given, a second screen of the drug exists; the two often differ.
